Results from PubChem BioAssay AID1030 (National Center for Advancing Translational Sciences (NCATS), 2008).
Among all 220,000 compounds or so, about 16,000 (7.3%) were called active. This list was built around the results that the source calls inconclusive (neither active nor inactive); the mix of calls is not that of the screen. Calls follow the shape of the dose curve; as a rule, active = well fitted inhibition curve with a large enough effect (not every such curve was filed as active); inconclusive = small, poorly fitted or top-dose-only effect, or another doubt; inactive = no such curve, though single readings can be large or run the other way. Potencies of inconclusive entries are left out as doubtful fits.

The molecules below were run against Aldehyde dehydrogenase 1A1 (Homo sapiens) (UniProt P00352) (assay: qHTS Assay for Inhibitors of Aldehyde Dehydrogenase 1 (ALDH1A1)). Details: Purified ALDH1A1, NADH fluorescence, propionaldehyde substrate; series mostly up to 75.3 µM; activity, negative = inhibition: at the top concentration.
Chain of UniProt P00352 (P00352 whole entry, looked up): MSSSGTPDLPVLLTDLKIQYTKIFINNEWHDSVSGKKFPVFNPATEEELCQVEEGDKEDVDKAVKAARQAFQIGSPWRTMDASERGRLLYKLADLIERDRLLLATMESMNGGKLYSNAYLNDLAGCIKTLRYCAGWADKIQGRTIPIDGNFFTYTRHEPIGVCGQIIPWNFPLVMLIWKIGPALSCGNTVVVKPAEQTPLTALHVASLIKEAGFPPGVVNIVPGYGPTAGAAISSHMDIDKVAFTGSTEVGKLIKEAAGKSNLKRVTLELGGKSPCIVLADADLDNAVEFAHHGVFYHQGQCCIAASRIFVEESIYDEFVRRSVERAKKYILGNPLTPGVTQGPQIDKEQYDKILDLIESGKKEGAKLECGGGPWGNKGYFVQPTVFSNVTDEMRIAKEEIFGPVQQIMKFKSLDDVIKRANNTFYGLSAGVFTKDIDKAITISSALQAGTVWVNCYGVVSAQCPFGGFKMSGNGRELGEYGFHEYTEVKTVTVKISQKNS

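For activity, negative = inhibition in this document: plate controls were no enzyme wells and a reference inhibitor.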
Potency is read from the fitted curve at half-maximal effect; tags tell the direction and shape of the fitted curve.

SMILES | Potency | activity, negative = inhibition
CCCNC(=O)Cn1c(=O)/c(=C\c2ccc(-c3cccc([N+](=O)[O-])c3)o2)s/c1=C\C(=O)C(C)(C)C | inconclusive [inhibitor, single point] | 
C=CCN(c1ccc(C(=O)Nc2ccc(C)c(C)c2)cc1)S(C)(=O)=O |  | inactive: 0.984%
CC1(C)CC2CC(C)(CN2C(=S)Nc2ccccc2F)C1 (stereo not given) | inconclusive [inhibitor, single point] | 
CN(C)C=NC(=O)c1ccc([N+](=O)[O-])c(CS(=O)(=O)c2ccc(Cl)cc2)c1 | inconclusive [inhibitor, partial curve] | 
O=C(Nc1cccc(O)c1)c1ccc(Br)cc1 |  | inactive: 8.02%
COCC(=O)C(C(=O)OC)[C@H](CCc1ccccc1)NC(=O)OC (stereo not given in full) |  | inactive: -6.6%
Cc1cc(O)c2c(-c3ccccc3)cc(=O)oc2c1 | inconclusive [inhibitor, single point] | 
COc1ccccc1NC(=O)c1cc(S(=O)(=O)NCc2ccccc2)ccc1F |  | inactive: 11.8%
Cc1nc2ccc(NC(=O)c3ccc(F)c(S(=O)(=O)N4CCOCC4)c3)cc2s1 | inconclusive [inhibitor, full curve] | 
CCOc1ccc(NC(=S)Nc2ccc3nsnc3c2)cc1 | active: 3.55 µM | 
CCCCCCCCCCCCCCCC(=O)OC/C=C(C)/C=C/C=C(C)/C=C/C1=C(C)CCCC1(C)C | inconclusive [inhibitor, single point] | 
CC(C)(OC1OC(CO)C(O)C(O)C1O)[C@H]1Oc2ccc3ccc(=O)oc3c2[C@H]1O (stereo not given in full) | inconclusive [inhibitor, partial curve] | 
CCN(CC)S(=O)(=O)c1cccc(NC(=O)C(=O)c2c(-c3ccccc3)cc3ccccn23)c1 | inconclusive [inhibitor, partial curve] | 
CCCCCC(=O)Nc1c(-c2cccs2)c(=O)c2ccccc2n1C | inconclusive [inhibitor, partial curve, poor fit] | 
Cc1ccc(S(=O)(=O)Oc2cccc(/C=N/n3cnnc3)c2)cc1 | active: 0.891 µM | 
COC(=O)C1C2C=CC3(CN(Cc4cccs4)C(=O)C13)O2 (stereo not given) |  | inactive: -9.83%
CCc1ccccc1NC(=O)c1nnn(CC(=O)Nc2cccc(C)c2)c1N |  | inactive: -17.1%
COc1cc(/C=N/NC(=O)CCn2nnc3ccccc32)ccc1O |  | inactive: 11.7%
Cc1cc(C(=O)N/N=C/c2ccco2)n[nH]1 |  | inactive: 6.64%
CN(Cc1cccc(F)c1)C(=O)c1ccc(S(=O)(=O)C(F)F)cc1 | inconclusive [inhibitor, single point] | 
CC(CO)Nc1nc(SCc2ccccc2)nc2sc3c(c12)CCC3 (stereo not given) | inconclusive [inhibitor, partial curve] | 
O=C1Cc2cccc3cccc1c23 | inconclusive [inhibitor, partial curve] | 
Cc1cc(C)cc(-n2c3nc4ccccc4nc3c3c(=O)n(Cc4ccco4)cnc32)c1 | inconclusive [inhibitor, single point] | 
CCOc1cc(/C=N/NC(=O)CSc2nncn2C)ccc1OC(=O)c1ccc(Cl)cc1 | inconclusive [inhibitor, single point] | 

SMILES | Potency | activity, negative = inhibition
COc1ccc(N/C=C2/CCCCC2=O)cc1 | active: 11.2 µM | 
C=CCc1c(C)nc(SC)nc1Nc1ccc(C(=O)O)cc1 |  | inactive: -2.28%
CCOC(=O)C(C)(C)Sc1nc2c(cnn2-c2ccc(C)cc2)c(=O)[nH]1 | inconclusive [inhibitor, single point] | 
O=S(=O)(N/N=C\c1c(F)cccc1Cl)c1ccc(Cl)cc1 | inconclusive [inhibitor, single point] | 
CCN(CC)C(=O)Cn1nc(-c2ccccc2O)nc1SCC(=O)Nc1ccc(OC)cc1 | inconclusive [inhibitor, partial curve] | 
CCOC(=O)CC(=O)CSc1nc2c(cc1C#N)CCCCC2 | inconclusive [inhibitor, partial curve] | 
O=C(CSc1nnc(-c2cccs2)n1Cc1ccco1)Nc1ccc2c(c1)OCO2 | inconclusive [inhibitor, single point] | 
O=C(NC(Cc1ccccc1)C(=O)NCc1ccccn1)c1ccco1 (stereo not given) | inconclusive [inhibitor, single point] | 
Cc1sc(C(C2C(=O)CC(C)(C)CC2=O)C2C(=O)CC(C)(C)CC2=O)cc1[N+](=O)[O-] | active: 12.6 µM | 
CC(C)(C)c1cc[n+](-c2[nH]c(=O)sc2/C=N/NC([S-])=Nc2ccccc2)cc1 | active: 25.1 µM | 
COS(C)(=O)=O | inactive | 
CCNC(=O)/C(=C\c1ccccc1)NC(=O)/C=C/c1ccccc1 | inconclusive [inhibitor, single point] | 
Cc1cc(S(=O)(=O)n2cnc3cc([N+](=O)[O-])ccc32)ccc1Cl | inconclusive [inhibitor, single point] | 
O=C(NN1C(=O)CSC1=S)C(=O)NN1C(=O)CSC1=S | inconclusive [inhibitor, full curve] | 
CCN(CC)S(=O)(=O)c1ccc(N2CCOCC2)c(NC(=O)c2ccc3ccccc3c2)c1 | inconclusive [inhibitor, partial curve, poor fit] | 
CCOC(=O)CCC(=O)OCC(=O)NC(C)C1CC2CCC1C2 (stereo not given) | active: 15.8 µM | 
COc1ccc(NC(=O)CC2C(=O)N(c3cccc(OC)c3)C(=O)N2Cc2ccco2)cc1 (stereo not given) | active: 15.8 µM | 
COc1ccccc1-n1cnnc1SCC(=O)NCc1cccs1 | inconclusive [inhibitor, partial curve, poor fit] | 
CCOC(=O)c1ccccc1NC(=O)CN1C(=O)CCS(=O)(=O)c2ccccc21 | inconclusive [inhibitor, single point] | 
CC(C)N(C(=O)Cn1c(SCC(=O)N2CCN(c3ccccc3)CC2)nc2ccccc21)C(C)C | active: 25.1 µM | 
COCCCNC(=O)c1c(N)n(-c2cccc(S(N)(=O)=O)c2)c2nc3ccccc3nc12 | inconclusive [inhibitor, partial curve] | 
CN(C)CCN(Cc1cc2cc3c(cc2[nH]c1=O)OCCO3)C(=S)NCC1CCCO1 (stereo not given) | inconclusive [inhibitor, single point] | 
COc1ccc(NC(=S)N(CCc2c(C)[nH]c3ccc(C)cc23)Cc2cccnc2)cc1 |  | inactive: 4%
O=C(CSc1nnc(-c2ccc(F)cc2)o1)Nc1ccc(S(=O)(=O)N2CCCC2)cc1 | active: 15.8 µM | 

SMILES | Potency | activity, negative = inhibition
COc1ccc(S(=O)(=O)NCC2CCCN(C(=O)CN3CCCCC3)C2)cc1 (stereo not given) | inconclusive [inhibitor, single point] | 
CCN(c1ccccc1)S(=O)(=O)c1ccc(Cl)c(NC(=O)COC(=O)C2CC2C)c1 (stereo not given) | inconclusive [inhibitor, single point] | 
Cc1c(Cl)cccc1NC(=O)CCC(=O)NNC(=O)CCC(=O)O |  | inactive: 9.47%
CCc1ccc(C2CC(=O)N(c3cccc(F)c3)C3=C2C(=O)OC3)cc1 (stereo not given) |  | inactive: -6.33%
Cc1ccc2nc(NC(=O)COC(=O)c3ccccn3)sc2c1 |  | inactive: -7.43%
CN(C)C=Nc1ccc2nn(-c3ccccc3)nc2c1 | inconclusive [inhibitor, partial curve] | 
CN(C)S(=O)(=O)c1cc(NC(=O)COC(=O)Cc2ccc(Br)cc2)ccc1Cl | inconclusive [inhibitor, single point] | 
Cc1ccc(NC(=S)N2CCN(c3nccc(C(F)(F)F)n3)CC2)c(C)c1 | inconclusive [inhibitor, single point] | 
Cc1noc(/C=C/N(C)C)c1S(=O)(=O)N1CCCC(C(=O)NCc2cccs2)C1 (stereo not given) | inconclusive [inhibitor, single point] | 
CCc1nnc(NC(=O)CSc2nnc(CNc3ccc(F)cc3)n2C2CCCCC2)s1 | active: 10 µM | 
O=C(c1ccccc1)N1CCN(c2ccc([N+](=O)[O-])c(N3CCOCC3)c2)CC1 | active: 0.891 µM | 
Cc1cc(C)c(S(=O)(=O)Nc2ccc(O)cc2)cc1C | active: 14.1 µM | 
COc1ccc(S(=O)(=O)N(Cc2ccccc2)Cc2nc(-c3ccccc3)no2)cc1 | inconclusive [inhibitor, single point] | 
O=C(c1ccc2c3c(cccc13)CC2)C1CCCN(C(=O)c2cc[n+]([O-])cc2)C1 (stereo not given) | inconclusive [inhibitor, single point] | 
C=CCOc1c2ccc(C(=O)NCc3ccccc3OC)cc2nn1C | inconclusive [inhibitor, partial curve] | 
CCNc1cc2n(c(=O)n1)CCc1cc(OC)c(OC)cc1-2 | inconclusive [inhibitor, single point] | 
CC(=O)Nc1ccc(Nc2ncnc3c2cnn3-c2ccc(C)cc2C)cc1 |  | inactive: -14.4%
Cc1sc(N/N=C/c2cccnc2)nc1-c1ccccc1 | inconclusive [inhibitor, partial curve] | 
COC(=O)Cc1c(C)nc2nc(NCc3ccc(Cl)cc3)[nH]n2c1=O | inconclusive [inhibitor, single point] | 
O=c1oc2cc(O)ccc2cc1-c1ccc2c(c1)OCCO2 | inconclusive [inhibitor, partial curve] | 
CC(=O)Nc1ccc(S(=O)(=O)N2CCN=C2SCc2cccnc2)cc1 | inconclusive [inhibitor, partial curve] | 
CC(C)(C)c1ccc(-c2cn(-c3ccc(Br)cc3)c3[n+]2CCCS3)cc1 | inconclusive [inhibitor, single point] | 
